Experimental data as given in the supplement of paper PMC4166925.
± gives the standard deviation of the averaged measurements. The full ranking holds about 33,000 sequences; the median of “E-score (dimensionless, -0.5 to 0.5)” is about -0.046, and the highest 2% start at about 0.36. Some of the results follow.

Tested on: T1, SpTbr T-box DNA-binding domain (GST fusion)
T1 sequence: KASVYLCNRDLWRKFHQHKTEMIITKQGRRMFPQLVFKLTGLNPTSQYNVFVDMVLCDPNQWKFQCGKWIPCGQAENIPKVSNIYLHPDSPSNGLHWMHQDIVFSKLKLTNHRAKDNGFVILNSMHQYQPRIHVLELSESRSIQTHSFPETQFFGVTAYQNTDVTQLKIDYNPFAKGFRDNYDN
Assay: PBM E-score of 8-mer (E-score (dimensionless, -0.5 to 0.5)); Tbr is Tbrain of the sea star Patiria miniata (Pm) or the sea urchin Strongylocentrotus purpuratus (Sp); higher = stronger binding preference; most listed sequences are background and not binding sites
Conditions: the construct has about 5 more residues each side
Procedure, shortened: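 Primer extension turned Universal Agilent oligonucleotide arrays double-stranded. They were incubated with 200 nM protein in PBS (pH 7.5); the protein was a GST-fused Tbr T-box DNA-binding domain expressed in BL21 E. coli at 20 °C and purified on glutathione. Every ungapped 8-mer was scored from the scanned, quantified probe intensities, and the Universal PBM Analysis Suite gave each an enrichment E-score averaged over duplicate arrays.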

Sequence	PBM E-score of 8-mer
TGTGCAAA	0.225 ± 0.033
CATATCTA	-0.24 ± 0.025
AGCGGGTA	0.0636 ± 0.022
GCAGAGGC	-0.259 ± 0.011
AAATAACG	0.138 ± 0.08
ATCGCCTG	0.158 ± 0.087
CGGGCGAG	-0.221 ± 0.018
AGACGCAA	-0.228 ± 0.024
GGGCAGAA	0.143 ± 0.024
CACTTTAG	0.194 ± 0.097
ATTGAGAC	-0.00788 ± 0.012
GGATGTAA	-0.206 ± 0.025
GGATTCTA	-0.213 ± 0.02
CTCGTAGC	-0.0266 ± 0.074
ATCTGTTC	-0.0784 ± 0.067
AGCAGATC	-0.117 ± 0.006
ATATTTGC	-0.0908 ± 0.0053
ATCGCAGG	0.141 ± 0.035
GAGCGTGC	0.0903 ± 0.076
GCCAGCAC	0.18 ± 0.0012
TCCGGAAA	-0.129 ± 0.0036
CGCACCCG	0.267 ± 0.054

Sequence	PBM E-score of 8-mer
TCGACGAA	0.0793 ± 0.013
GTTAGGAA	-0.0675 ± 0.11
ATGCCCGC	0.031 ± 0.012
CACATGAG	0.186 ± 0.0081
CAACTACC	-0.0272 ± 0.00088
CGAGCGCA	-0.125 ± 0.023
TAGACGCA	-0.139 ± 0.0035
ACTTAAAC	0.0599 ± 0.034
AGCGAGGA	0.0536 ± 0.0095
CATGAAAG	0.0519 ± 0.074
CATACGGA	-0.0654 ± 0.014
CCGGGCGC	0.0707 ± 0.022
AGGGCAAA	-0.301 ± 0.014
GCGCAAAC	0.214 ± 0.016
GCTGCAAC	-0.0405 ± 0.016
ATGTGTTC	0.111 ± 0.064
CCGGGCGA	0.00091 ± 0.0019
ATGACACG	0.315 ± 0.035
AAACCGAG	-0.0868 ± 0.053
AGCGTCGC	0.151 ± 0.044
AGGACGGA	-0.361 ± 0.018
GCATAATA	-0.264 ± 0.0092

Sequence	PBM E-score of 8-mer
AAGCAGGG	0.0283 ± 0.034
ACAATTTG	0.118 ± 0.072
GGTGGGGA	0.248 ± 0.033
AAACTGTA	-0.0341 ± 0.0062
AGTGTAAT	0.205 ± 0.042
CACTAAAC	0.16 ± 0.026
AAACGGCG	0.0915 ± 0.052
CTGTCCAC	0.0238 ± 0.083
AAATATAA	-0.0489 ± 0.051
CCACGAGG	0.121 ± 0.011
ACTACAGC	-0.0746 ± 0.044
CGTTGCCA	0.2464 ± 0.0017
GGGCTGAA	-0.207 ± 0.016
ATCGATTC	0.0381 ± 0.02
AGAGATAA	-0.0988 ± 0.061
CACACACG	0.233 ± 0.057
ATCGGCTG	0.0647 ± 0.039
CGTGGACC	-0.0726 ± 0.011
AGTTTTTC	-0.127 ± 0.0073
AACGCAGA	-0.146 ± 0.035
GTGTCCCA	0.00535 ± 0.026
GGAGGCAA	-0.235 ± 0.025

Sequence	PBM E-score of 8-mer
CAGCGAAC	0.0905 ± 0.021
AGGTCGAG	-0.0467 ± 0.015
GCGCAATA	0.0149 ± 0.02
ATCAGGGG	-0.0758 ± 0.012
GGCACATA	0.212 ± 0.0026
AGAAGGGC	-0.0801 ± 0.11
CGGGCACG	-0.236 ± 0.084
AACCTTCT	-0.0476 ± 0.056
GTAATATA	-0.108 ± 0.1
ACGTCGCA	0.106 ± 0.065
ACTGGGCA	-0.191 ± 0.021
GTATGCTA	-0.00407 ± 0.024
CCGCTAGG	-0.0592 ± 0.011
CACCACAA	0.182 ± 0.034
GTAAGAAC	-0.0394 ± 0.088
CTCGTAAC	-0.000405 ± 0.085
AATTTCAA	-0.2005 ± 0.0015
ACAAACCT	-0.229 ± 0.026
CCATCAGG	0.0038 ± 0.024
ATATAAGG	-0.108 ± 0.013
TATCACGA	0.153 ± 0.015
CGGACACC	0.228 ± 0.046

Sequence	PBM E-score of 8-mer
AGCGGAGC	-0.239 ± 0.034
GTCCGACA	0.0199 ± 0.043
GGGCGTTA	0.2697 ± 0.0022
TAGTCTGA	-0.132 ± 0.037
ATGATTTA	-0.072 ± 0.048
ACACCGAC	0.292 ± 0.0031
GGCAAATA	-0.125 ± 0.017
CATCGGGA	-0.148 ± 0.02
CAGGAGGG	-0.0635 ± 0.11
GTCCCATA	-0.139 ± 0.074
CCGCCGCA	-0.0972 ± 0.026
CTCTCATC	-0.0524 ± 0.04
CCCGGATA	-0.107 ± 0.029
CGTCCACA	0.148 ± 0.059
CGGATCAA	0.105 ± 0.079
CATAATTA	-0.332 ± 0.027
CTCCGAGC	-0.2244 ± 0.0021
AAGATGTA	-0.116 ± 0.0028
ACGGGTTC	0.15 ± 0.018
ACCCTAAT	-0.00936 ± 0.024
GGCTCTAC	0.0106 ± 0.024
